Experimental findings from article PMC5700166 are described below.

This is a selection; strong and weak results do not stand in their true shares. The list includes weakly bound sequences.

The target in the first assay is T1, GST-Nv-NF-kB (Cys allele) (UniProt E5G601).
T1 sequence: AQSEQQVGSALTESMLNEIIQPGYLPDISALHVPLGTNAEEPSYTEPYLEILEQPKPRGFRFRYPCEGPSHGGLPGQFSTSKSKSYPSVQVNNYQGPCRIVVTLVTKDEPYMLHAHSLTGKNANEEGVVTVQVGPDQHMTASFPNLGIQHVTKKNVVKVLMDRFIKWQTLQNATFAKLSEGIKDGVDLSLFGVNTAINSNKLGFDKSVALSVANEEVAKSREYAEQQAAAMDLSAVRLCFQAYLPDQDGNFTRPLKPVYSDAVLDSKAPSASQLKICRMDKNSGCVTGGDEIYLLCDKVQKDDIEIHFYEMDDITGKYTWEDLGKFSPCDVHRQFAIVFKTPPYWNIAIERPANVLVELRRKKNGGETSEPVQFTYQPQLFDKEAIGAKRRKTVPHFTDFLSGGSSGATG
In words: protein-binding microarray (PBM). Conditions: PBM: ~300 nM protein, 6 mM HEPES pH 7.8, 80 mM KCl, 0.5 mM EDTA, 0.5 mM EGTA, 6% glycerol, 35 ng/ul poly-dIdC, 1% milk, 1 h, room temperature; high values mean tight binding; double strand, one strand shown.
“CCGATTAACATCAGGAATATACATGATGTTAATCGGGTCTTGATTCGCTTGACGCTGCTG” showed a binding signal of -0.17 z-score. Still for that read-out and setting: for “CCGATTAACATCAGGGAGTACCCTGATGTTAATCGGGTCTTGATTCGCTTGACGCTGCTG” the value was 4.14 z-score. Turning to “CCGATTAACATCAGGAATTACACTGATGTTAATCGGGTCTTGATTCGCTTGACGCTGCTG”, the binding signal was -0.574 z-score.

“CCGATTAACATCAGAAAAATTCCTGATGTTAATCGGGTCTTGATTCGCTTGACGCTGCTG” had a binding signal of 0.278 z-score. “CCGATTAACATCAGGAAGGCCCCTGATGTTAATCGGGTCTTGATTCGCTTGACGCTGCTG” returned a binding signal of 2.69 z-score. As for “CCGATTAACATCAGTAGTTTCCATGATGTTAATCGGGTCTTGATTCGCTTGACGCTGCTG”, the binding signal turned out to be 0.0875 z-score.

The next assay concerns the target T2, GST-Co-NF-kB (UniProt F1ARL5).
T2 sequence: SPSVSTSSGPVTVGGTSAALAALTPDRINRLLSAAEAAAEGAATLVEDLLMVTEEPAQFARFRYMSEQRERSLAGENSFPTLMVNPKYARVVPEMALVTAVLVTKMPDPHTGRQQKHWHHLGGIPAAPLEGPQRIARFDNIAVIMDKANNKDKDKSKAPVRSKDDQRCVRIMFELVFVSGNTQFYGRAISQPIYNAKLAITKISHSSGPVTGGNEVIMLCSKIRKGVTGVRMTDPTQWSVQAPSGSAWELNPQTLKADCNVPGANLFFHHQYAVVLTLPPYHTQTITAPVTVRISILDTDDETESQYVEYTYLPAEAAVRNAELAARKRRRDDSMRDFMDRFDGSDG
In words: protein-binding microarray (PBM). Conditions: PBM: ~300 nM protein, 6 mM HEPES pH 7.8, 80 mM KCl, 0.5 mM EDTA, 0.5 mM EGTA, 6% glycerol, 35 ng/ul poly-dIdC, 1% milk, 1 h, room temperature; Ap Aiptasia and Nv Nematostella (sea anemones) / Co Capsaspora / Aq Amphimedon (sponge) / Dm Drosophila / Hu human; RHD is the Rel homology domain; high values mean tight binding; most listed sequences are background and not binding sites; double strand, one strand shown.
“CCGATTAACATCAGGAAAATACATGATGTTAATCGGGTCTTGATTCGCTTGACGCTGCTG”: the binding signal was determined as 0.634 z-score. With “CCGATTAACATCACGTAAAATCCTGATGTTAATCGGGTCTTGATTCGCTTGACGCTGCTG”, the binding signal came to 0.36 z-score. The same measure, in the same setting: for “CCGATTAACATCACAAAATTCCATGATGTTAATCGGGTCTTGATTCGCTTGACGCTGCTG” the value was -0.184 z-score. The sequence “CCGATTAACATCAGGAAAACACATGATGTTAATCGGGTCTTGATTCGCTTGACGCTGCTG” displayed a binding signal of 0.425 z-score. Sequence “CCGATTAACATCAAAAAAAGTACTGATGTTAATCGGGTCTTGATTCGCTTGACGCTGCTG” gave a binding signal of 0.662 z-score.

Sequence “CCGATTAACATCAAATAATTTCCTGATGTTAATCGGGTCTTGATTCGCTTGACGCTGCTG” gave a binding signal of 0.724 z-score. For “CCGATTAACATCACGTATTTTCCTGATGTTAATCGGGTCTTGATTCGCTTGACGCTGCTG”, the binding signal was -0.0485 z-score. For “CCGATTAACATCACGTTTTTTCCTGATGTTAATCGGGTCTTGATTCGCTTGACGCTGCTG”, the binding signal is 0.997 z-score. On the same count and under the same terms, for “CCGATTAACATCACGTAAACTCCTGATGTTAATCGGGTCTTGATTCGCTTGACGCTGCTG” the value was 0.182 z-score; for “CCGATTAACATCAGAATTTCCTATGATGTTAATCGGGTCTTGATTCGCTTGACGCTGCTG”, 0.57 z-score; for “CCGATTAACATCAAAATTCCCCCTGATGTTAATCGGGTCTTGATTCGCTTGACGCTGCTG”, 11.3 z-score. In turn, “CCGATTAACATCATTTACATTCGTGATGTTAATCGGGTCTTGATTCGCTTGACGCTGCTG” displayed a binding signal of 0.00142 z-score. The same measure, in the same setting: in the case of “CCGATTAACATCAGTAAAATCCATGATGTTAATCGGGTCTTGATTCGCTTGACGCTGCTG” it was 0.494 z-score. “CCGATTAACATCATGGTACTTGTTGATGTTAATCGGGTCTTGATTCGCTTGACGCTGCTG” gave a binding signal of -0.313 z-score. “CCGATTAACATCAAGTTTTTTCCTGATGTTAATCGGGTCTTGATTCGCTTGACGCTGCTG” gave a binding signal of 0.462 z-score.

“CCGATTAACATCAGGAAAAATACTGATGTTAATCGGGTCTTGATTCGCTTGACGCTGCTG” yielded a binding signal of 0.908 z-score. Sequence “CCGATTAACATCAAAAATTCCCCTGATGTTAATCGGGTCTTGATTCGCTTGACGCTGCTG” displayed a binding signal of 9.75 z-score. “CCGATTAACATCAAGTAATTTTCTGATGTTAATCGGGTCTTGATTCGCTTGACGCTGCTG” gave a binding signal of -0.0369 z-score. Regarding “CCGATTAACATCAAGTATTTTCCTGATGTTAATCGGGTCTTGATTCGCTTGACGCTGCTG”, the binding signal turned out to be 0.831 z-score. The sequence “CCGATTAACATCACCTCTCGCGCTGATGTTAATCGGGTCTTGATTCGCTTGACGCTGCTG” came in with a binding signal of 0.051 z-score. The same measure, in the same setting: for “CCGATTAACATCAGTGGTACTTGTGATGTTAATCGGGTCTTGATTCGCTTGACGCTGCTG” the value was 0.414 z-score. Take “CCGATTAACATCAGGAAAAACACTGATGTTAATCGGGTCTTGATTCGCTTGACGCTGCTG”: the binding signal worked out at 0.781 z-score. Turning to “CCGATTAACATCAGCGGAATTCCTGATGTTAATCGGGTCTTGATTCGCTTGACGCTGCTG”, the binding signal came out at 0.0469 z-score. “CCGATTAACATCACGTACATTCCTGATGTTAATCGGGTCTTGATTCGCTTGACGCTGCTG” came in with a binding signal of -0.56 z-score. On to “CCGATTAACATCAGTGTGCTTCTTGATGTTAATCGGGTCTTGATTCGCTTGACGCTGCTG”, for which the binding signal turned out to be 0.211 z-score. On the same count and under the same terms, in the case of “CCGATTAACATCAGTTTTTTCCATGATGTTAATCGGGTCTTGATTCGCTTGACGCTGCTG” it was 0.422 z-score; in that of “CCGATTAACATCAGGCAAGTCCCTGATGTTAATCGGGTCTTGATTCGCTTGACGCTGCTG”, -0.246 z-score. On to “CCGATTAACATCAGGAAAGTCCATGATGTTAATCGGGTCTTGATTCGCTTGACGCTGCTG”, for which the binding signal is -0.0853 z-score. Turning to “CCGATTAACATCAAAATTTACCATGATGTTAATCGGGTCTTGATTCGCTTGACGCTGCTG”, the binding signal worked out at 0.206 z-score. Still for that read-out and setting: in the case of “CCGATTAACATCAAGGCAATTCCTGATGTTAATCGGGTCTTGATTCGCTTGACGCTGCTG” it was 0.339 z-score; in that of “CCGATTAACATCAGAAATTCCCCTGATGTTAATCGGGTCTTGATTCGCTTGACGCTGCTG”, 8.74 z-score; in that of “CCGATTAACATCACGTGTTTTCCTGATGTTAATCGGGTCTTGATTCGCTTGACGCTGCTG”, 0.177 z-score. For “CCGATTAACATCACTGGAATTCCTGATGTTAATCGGGTCTTGATTCGCTTGACGCTGCTG”, the binding signal is 0.863 z-score. Turning to “CCGATTAACATCAGTACATTCCATGATGTTAATCGGGTCTTGATTCGCTTGACGCTGCTG”, the binding signal stood at 0.0413 z-score. “CCGATTAACATCAGGAATATACATGATGTTAATCGGGTCTTGATTCGCTTGACGCTGCTG” showed a binding signal of -0.0292 z-score. Regarding “CCGATTAACATCAGGGAGTACCCTGATGTTAATCGGGTCTTGATTCGCTTGACGCTGCTG”, the binding signal came out at 1.84 z-score. As for “CCGATTAACATCAGGAATTACACTGATGTTAATCGGGTCTTGATTCGCTTGACGCTGCTG”, the binding signal was -0.093 z-score. The sequence “CCGATTAACATCAGAAAAATTCCTGATGTTAATCGGGTCTTGATTCGCTTGACGCTGCTG” yielded a binding signal of -0.531 z-score. As for “CCGATTAACATCAGGAAGGCCCCTGATGTTAATCGGGTCTTGATTCGCTTGACGCTGCTG”, the binding signal was -0.524 z-score. Sequence “CCGATTAACATCAGTAGTTTCCATGATGTTAATCGGGTCTTGATTCGCTTGACGCTGCTG” registered a binding signal of 0.56 z-score.
